Measurements: article PMC8357826, “The extracellular chaperone Clusterin enhances Tau aggregate seeding in a cellular model” (Nature Communications, 2021)
One block for each binder: values may come before it.

Tests used:
[1] = biological target: the molecule itself; experiment: co-sedimentation; TauRD aggregation reactions (10 µM TauRD, 2.5 µM heparin, 2 mM MgCl2, 37 °C, 850 rpm) without or with equimolar Clu present from the start; centrifuged at 16,100 × g, 4 °C, 1 h; total, supernatant and pellet quantified by immunoblot
[2] = biological target: T1, Clusterin (Clu; apolipoprotein J), recombinant with Strep tag (CluStrep) (human, UniProt P10909 23-227; P10909 228-449, N-glycosylated | N-glycosylated); experiment: dual-color fluorescence cross-correlation spectroscopy (dcFCCS); excess unlabeled Clu added to TauRD-A532/Clu-A647 complexes; FCCS signal followed; details: both partners purified
T1 construct: Clusterin beta chain, cut from the precursor in the secretory pathway and disulfide-linked to the alpha chain; Clusterin alpha chain, cut from the precursor in the secretory pathway and disulfide-linked to the beta chain; Clu cDNA amplified from HEK293T cells; 'Clu followed by a strep tag'; Purification protocol: protocols.io 10.17504/protocols.io.bvvkn64w; also called Clusterin-Strep tag; …

[3] = biological target: T2, Clusterin labeled with Alexa Fluor 647 (Clu-A647) (human, UniProt P10909 23-227; P10909 228-449, Alexa Fluor 647 on the N-terminus (NHS ester); N-glycosylated | Alexa Fluor 647 on the N-terminus (NHS ester); N-glycosylated); experiment: dual-color fluorescence cross-correlation spectroscopy (dcFCCS); whole aggregation reaction (1 µM TauRD-A532, 9 µM unlabeled TauRD, 1.25 µM Clu-A647) from 1.5-2 h after initiation of aggregation (ThT-positive TauRD aggregates); diluted 100-fold in PBS before measurement; details: both partners purified
T2 construct: Clusterin beta chain, cut from the precursor in the secretory pathway and disulfide-linked to the alpha chain; Clusterin alpha chain, cut from the precursor in the secretory pathway and disulfide-linked to the beta chain; labeling efficiency typically about 65-70%; also called labeled Clu; source: HEK293-EBNA suspension cells (HEK293E-CluStrep), secreted, purified; labeled with Alexa647 NHS ester

B1: cysteine-free TauRD (Tau repeat domain, […], C291A/P301L/C322A/V337M) (domain or fragment)
chain: not shown
notes: Tau repeat domain, Tau […]; Used as monomer (0 h) and as heparin-induced aggregates (10 µM TauRD, 2.5 µM heparin, 2 mM MgCl2, 37 °C); the assays tell the states apart; also called unlabeled TauRD; source: E. coli BL21(DE3), purified (Ni-NTA, Usp2 cleavage, Source30S cation exchange, Superdex-75 SEC); not shown: His6-ubiquitin, N-terminal, cleaved
binding result [1]: binds

binding result [2]: binds
binding result [3]: binds
B2: TauRD-I260C labeled with Alexa Fluor 532 (TauRD-A532; Tau […], I260C/C291A/P301L/C322A/V337M) (domain or fragment)
chain: not shown
modifications: Alexa Fluor 532 (C5 maleimide) on cysteine 260
notes: Tau repeat domain, Tau […]; In the dcFCCS experiments 1 µM TauRD-A532 was mixed with 9 µM unlabeled TauRD, so the aggregates hold both; also called labeled TauRD; source: E. coli BL21(DE3), purified (Ni-NTA, Usp2 cleavage, Source30S cation exchange, Superdex-75 SEC with 1 mM TCEP); labeled with Alexa532 C5 maleimide; not shown: His6-ubiquitin, N-terminal, cleaved
